Consider 34 variants from the RNAGym collection of RNA variant scans (doi:10.1093/nar/gkz1192).

First the molecules themselves.
B1: CPEB3 Ribozyme (parent)
chain: UAACAGGGGGCCACAGCAGAAGCGUUCACGUCGCAGCCCCUGUCAGAUUCUGGUGAAUCUGCGAAUUCUGCUGUAUAUCUC

Read counts are not given, so values of variants with three or more changes are uncertain.

The variants in this data set derive from B1. Briefly: self-cleavage, relative activity (ratio to wild type); higher = more cleavage; in vitro, sequencing. The method in brief:
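After error-prone PCR and barcoding, CPEB3 ribozyme mutant libraries were transcribed with T7 RNA polymerase at 37°C for 5 hours, then given 15 min with DNase I before an EDTA stop, and they cleaved during both steps. Reverse transcription with template switching preceded Illumina sequencing. Relative activity divides a variant's cleaved/total read fraction by the unmutated ribozyme's. At least 5 reads were required per variant, and three batches were averaged.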
In the case of UAACAGGGGGCCACAGCAGAAGCGAUCACGUCGCAGCCCCUGUCAGACUCUGGUGAAUCUGCGAAUUCUGCUGUACAUCUC [U25A U48C U76C], the self-cleavage was determined as 0.14. Turning to UAACAGGGGGCCACAGCAGAAGCGAUCACGUCGCAGCCCCUGUCAGAUUCUGGUGAAUCUGCGAAUCCCGCUGUAUAUCCC [U25A U67C U69C U80C], the self-cleavage stood at 0.14. Then UAACAGGGGGCCACAGCAGAAGCGAUCACGUCGCAGCCUCUGUCAGAUUCUGGUGAAACUGCGAAUUCUGCUGUUUAUCUC [U25A C39U U58A A75U], with 0.07; and UAACAGGGGGCCACAGCAGAAGCGAUCAUGUCGCAGCCCCUGUCAGAUUCUGGUGAGUCUGCGAAUUCUGCAGUAUAUCUC [U25A C29U A57G U72A], with 0.31; and UAACAGGGGGCCACAGCAGAAGCGAUCACGUCGCAGCCCCUGUCAGACUCUGGUGGAUCUGCGAAUCCUGCCGUAUAUCUC [U25A U48C A56G U67C U72C], with 0.36.

UAACAGGGGGCCACAGCAGAAGCGAUCACGUCGCAGCCCCUGUCAGAUUCUGGUGAAUCCGCGAAUUCUGCUGUAUACCAC [U25A U60C U78C U80A]: the self-cleavage amounted to 0.06. The same measure for UAACAGGGGGCCACAGCAGAAGCGAUCACGACGCAGCCCCUGUCAGAUUCUGGCGAAACUGCGAAUUCUGCUGUAUAUCUC [U25A U31A U54C U58A]: 0.09; for UAACAGGGGGCCACAGCAGAAGCGCUCUCGUCGCUGCCCCUGUCAGAUUCUGGUGAAUCUGCGAAUUCUGAUGUAUAUCUC [U25C A28U A35U C71A]: 0.13; for UAACAGGGGGCCACAGCAGAAGCGAUCACGUUGCAGCCCCUGUCAGAUUCACGUGAAUCUGCGGAUUCUGCUGUAUAUCUC [U25A C32U U51A G52C A64G]: 0.06.

In the case of UAACAGGGGGCCACAGCAGAAGCGAACACGUCGCAGCCCCUGCCGGAUUCUGGUGAAUCUGCGAAGUCUGCUGCAUAUCUC [U25A U26A U43C A45G U66G U74C], the self-cleavage is 0.17. Then UAACAGGGGGCCACAGCAGAAGCGCUCGCGUCGCAGCCCCUGUCUGAUUCUGGUGAAUCUGCGAAUUCUGCUGUAUAUCUC [U25C A28G A45U], with 0.08; and UAACAGGGGGCCACAGCAGAAGCGCUCGCGUCGCGGCCCCUGUCGGAUUCUGGUGAAUCUGCGAAUUUUGCUGUAUAUCUC [U25C A28G A35G A45G C68U], with 0.22. The same measure for UAACAGGGGGCCACAGCAGAAGCGAGCACGUCGCAGCCCCUGUCAGAUUCUGGUGAAUCUGCGAAUUCUGCUGUAUAUCCC [U25A U26G U80C]: 0.48; for UAACAGGGGGCCACAGCAGAAGCGACCACGUCGCAGCCCCUGUCAGAUUCAGGUGAAACUGCGAAUUCUGCUGUAUAUCUC [U25A U26C U51A U58A]: 0.08; for UAACAGGGGGCCACAGCAGAAGCGAUCACGUCGCAGCCCCUGUCAGAUUCUGGUGAACCUGCGAAUUCCGCUGUAUAUCUC [U25A U58C U69C]: 0.06. Then UAACAGGGGGCCACAGCAGAAGCGACCACGUUGCAGCCCCUGUCAGAUUCAGGUGAAUCUGCGGAUUCUGCCGUAUAUCUC [U25A U26C C32U U51A A64G U72C], with 0.05.

Regarding UAACAGGGGGCCACAGCAGAAGCGCUCUCGUUGCUGCCCCGGUCAGAUUCUGGAGAAACUGCGAAUUCUGCUGUAUAUCUC [U25C A28U C32U A35U U41G U54A U58A], the self-cleavage came to 0.06. The same measure for UAACAGGGGGCCACAGCAGAAGCGAUCACGCCGCAGCCCCUGUCAGACCCUGGUGAAUCUGCGAGUUCUGCUGUAUAUCUC [U25A U31C U48C U49C A65G]: 0.12; for UAACAGGGGGCCACAGCAGAAGCGACCACGUCGCAGCCCCAGUCAGAUUCUGGUGAAUCUGCGAAUUCUGCUGUAUAUCUC [U25A U26C U41A]: 0.3; for UAACAGGGGGCCACAGCAGAAGCGAACACGUCGCAGCCCCUGUCAGAUUCUGGUGAAUCUGCGAAUUCAGCUGUAUAUCUC [U25A U26A U69A]: 0.1. UAACAGGGGGCCACAGCAGAAGCGAUCACAUCGCAGCCCCUGUCAGAUUCUGGUGAAUCUGCGGAUUCUGCUGUAUAACUC [U25A G30A A64G U78A]: the self-cleavage amounted to 0.12.

UAACAGGGGGCCACAGCAGAAGCGAUCACGUCGCAGCCCCUUUCAGAUUCUGGUGAAUCUGCGAAUUCAGCUGUAUAUCUC [U25A G42U U69A]: the self-cleavage was 0.08.

As for UAACAGGGGGCCACAGCAGAAGCGAGCACGACGCAGCCCCUGUCAGAUUCCGGCGAAUCUGCGAAUUCUGCUGUAUAUCUC [U25A U26G U31A U51C U54C], the self-cleavage was 0.1. The same measure for UAACAGGGGGCCACAGCAGAAGCGAUCACGUCGCAGCCCCUGCCAGAUUCUGGUGAAUCCGCGAAUUCUGCUGUAUAUCUC [U25A U43C U60C]: 0.07. In the case of UAACAGGGGGCCACAGCAGAAGCGAUCACGUCGCAGCCCCCGUCAGAUUCUGGUGAAUCUGCGAGUUCUGCCGUAUAUCUC [U25A U41C A65G U72C], the self-cleavage amounted to 0.16. Then UAACAGGGGGCCACAGCAGAAGCGCUCGCGUCGUAGCCCCUGUCAGAUUCUGGUGAAUCUGCGAAUUCUGCUGUAUAUCUC [U25C A28G C34U], with 0.37. Then UAACAGGGGGCCACAGCAGAAGCGAUCACGGCGCGGCCCCUAUCUGACUCUGGUGAAUCCGCGAAUUCUGCUGUAUAUCUC [U25A U31G A35G G42A A45U U48C U60C], with 0.05; and UAACAGGGGGCCACAGCAGAAGCGAUCAAGUCGCAGCCCCUGUCAGAUUCAGGUGAAUCUGCGAGUUCUGCUGUAUAUCUC [U25A C29A U51A A65G], with 0.29; and UAACAGGGGGCCACAGCAGAAGCGCUCGCGUCGCAGCCCCUGUCAGAUUCUGGUGAAUCUGCGAAUUCUGCUGUAUAUCAC [U25C A28G U80A], with 0.15.

For UAACAGGGGGCCACAGCAGAAGCGAUCACGUCGCAGCCCCUGUCAGAUUCUGGUGAAUAUGCGAAUUCCGCUAUACAUCUC [U25A C59A U69C G73A U76C], the self-cleavage was found to be 0.

As to UAACAGGGGGCCACAGCAGAAGCGAUCACGACGCAGCCCCUGUCAGAUUCUGGUGAGUCUGCGAAUUCUGCUCUAUAUCCC [U25A U31A A57G G73C U80C], the self-cleavage was 0.27. As for UAACAGGGGGCCACAGCAGAAGCGAUCACGUCGCAGCCCCCGCCAGAUUCUGGUGAAUCUGCGGAUUCUGCUUUAUAUCUC [U25A U41C U43C A64G G73U], the self-cleavage is 0.39. The same measure for UAACAGGGGGCCACAGCAGAAGCGACCACGUCGCUGCCCCUGUCUGAUUCUGGUGAAUCUGCGAAUUCUGCUGUAUAUCUC [U25A U26C A35U A45U]: 0.07. The same measure for UAACAGGGGGCCACAGCAGAAGCGAUCACGCCGCAGCCCCUGUCAGAUUCUGGUGAAUCUGCGAAUUCUGCUGGAUAUCUC [U25A U31C U74G]: 0.33.
